Assay results as given in article PMC4336329 (PLoS ONE, 2015).
The whole screen tested about 310,000 compounds, of which about 14,000 (4.5%) showed an effect of 50% or more. The effect is printed as a negative number. The list shows a part of the results.

molecular target: human ether-à-go-go-related gene (hERG) potassium channel (human, UniProt Q12809); experiment: primary screen, population patch clamp on CHO cells stably expressing hERG
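Also: peak tail current of the secondary pulse compared with the same well before compound.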

Chain of human ether-à-go-go-related gene (hERG) potassium channel (Q12809 whole entry, looked up): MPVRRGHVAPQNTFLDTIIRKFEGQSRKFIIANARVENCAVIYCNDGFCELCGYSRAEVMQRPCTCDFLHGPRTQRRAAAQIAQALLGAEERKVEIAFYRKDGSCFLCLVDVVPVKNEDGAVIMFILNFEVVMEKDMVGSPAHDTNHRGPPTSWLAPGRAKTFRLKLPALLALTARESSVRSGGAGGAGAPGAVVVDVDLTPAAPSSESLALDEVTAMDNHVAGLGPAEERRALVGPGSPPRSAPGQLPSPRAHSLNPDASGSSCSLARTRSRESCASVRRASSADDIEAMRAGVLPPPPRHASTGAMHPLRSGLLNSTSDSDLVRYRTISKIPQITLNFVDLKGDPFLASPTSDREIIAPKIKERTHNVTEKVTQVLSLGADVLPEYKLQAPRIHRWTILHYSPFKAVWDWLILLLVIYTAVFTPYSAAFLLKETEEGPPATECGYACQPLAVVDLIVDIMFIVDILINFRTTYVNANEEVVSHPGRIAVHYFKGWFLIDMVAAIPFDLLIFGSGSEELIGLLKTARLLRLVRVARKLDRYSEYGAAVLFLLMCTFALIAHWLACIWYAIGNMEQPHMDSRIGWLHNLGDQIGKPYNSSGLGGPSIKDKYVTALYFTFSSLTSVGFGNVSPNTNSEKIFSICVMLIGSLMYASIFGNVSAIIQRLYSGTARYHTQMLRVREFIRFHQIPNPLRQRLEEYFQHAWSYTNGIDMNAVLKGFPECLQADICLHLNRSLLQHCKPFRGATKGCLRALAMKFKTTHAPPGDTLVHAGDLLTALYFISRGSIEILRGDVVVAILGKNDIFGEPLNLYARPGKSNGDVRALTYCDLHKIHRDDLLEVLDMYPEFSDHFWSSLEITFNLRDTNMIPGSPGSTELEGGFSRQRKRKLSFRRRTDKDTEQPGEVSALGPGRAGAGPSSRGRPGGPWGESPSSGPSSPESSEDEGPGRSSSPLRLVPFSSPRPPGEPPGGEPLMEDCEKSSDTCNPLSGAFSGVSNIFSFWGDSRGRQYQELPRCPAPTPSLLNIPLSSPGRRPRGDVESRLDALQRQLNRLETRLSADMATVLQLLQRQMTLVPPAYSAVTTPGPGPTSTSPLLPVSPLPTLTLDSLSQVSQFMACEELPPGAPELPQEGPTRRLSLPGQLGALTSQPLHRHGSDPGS

SMILES	hERG current change (%, negative = inhibition) at 10uM [%]
CN(C)S(=O)(=O)n1cc(/C=C(\NC(=O)c2ccccc2Cl)C(=O)N2CCOCC2)c2ccccc21	-7.07
CCOC(=O)c1cccc(N2C(=O)Nc3ccccc3N2O)c1	-6.97
COc1cc(/C=C2\SC(=S)N(NS(=O)(=O)c3ccc(C)cc3)C2=O)cc(OC)c1OC	1.44
COc1cc(OC)cc(C(=O)NC(C(=O)Nc2ccc3c(c2)OCO3)C(C)C)c1 (stereo not drawn)	15.1
C=CCc1c(C)nc(SC)nc1Nc1ccc(C(=O)O)cc1	3.32
Cc1cc(C)nc(N/N=C/c2ccccc2OCc2ccc(Br)cc2)n1	19.3
Cc1nonc1C(=O)N/N=C/c1ccccc1	9.44
O=C(O)C(=O)O.OCC1CCCCN1CC(O)COC(c1ccc(F)cc1)c1ccc(F)cc1 (stereo not drawn)	-71
Nc1cccc(-c2nc3ccc(N)cc3s2)c1	11.5
COc1ccc(/C=C/C(=O)c2ccncc2)c2ccccc12	-1.97
N#C/C(=C\c1c(N2CCCCC2)nc2ccccn2c1=O)C(=O)NCc1ccco1	-33.4
O=C(Cn1nnc(-c2ccccc2)n1)NNC(=O)c1ccc(Br)cc1	17.6
O=C(CSC1=NC2(CCCCCC2)N=C1c1ccccc1)Nc1ccc2c(c1)OCCO2	-9.84
COc1cc2nc(CCc3ccccc3)oc(=O)c2cc1OC	9.52
CCOC(=O)/C=c1\s/c(=C\c2ccc(C#N)cc2)c(=O)n1CC(=O)Nc1cccc(C)c1C	18.6
Cc1cc(C)n(CCN(C)C(=O)c2cc(COc3c(F)cccc3F)on2)n1	7.78
Cc1ccccc1OCC(=O)Nc1ccc(N2CCN(C(=O)c3ccco3)CC2)cc1	-47.8
CSc1cccc(CN(C)C(=O)C2CCC(=O)N(CCCN3CCCC3=O)C2)c1 (stereo not drawn)	1.61
COc1ccc(N2CCN(C(=O)C3CCN(C(=O)c4cccc(Cl)c4)CC3)CC2)cc1	-29.8
CCN(CC)S(=O)(=O)c1ccc(OC)c(NC(=O)CCS(=O)(=O)Cc2ccccc2)c1	-28
O=C(Cn1nnc(-c2ccc(Cl)cc2)n1)N1CCN(C(=O)c2ccco2)CC1	-65
O=C(c1ccc(Cl)cc1)N1CCc2ccccc21	-4.8

SMILES	hERG current change (%, negative = inhibition) at 10uM [%]
Cc1cc(C(F)(F)F)nn1-c1nc(-c2ccco2)cc(C(F)(F)F)n1	-0.589
CN1CCN(Cc2oc(CO)cc(=O)c2O)CC1	4.85
CCN(C(=O)CCS(=O)(=O)c1cccc2nsnc12)c1cccc(C)c1	-12.8
Cc1ccc2ccc(C)[n+](CCCS(=O)(=O)[O-])c2c1	16.7
CCOC(=O)[C@@H]1[C@H]2COc3ccc(Br)cc3[C@@H]2N2C(=O)N(c3ccc(C(F)(F)F)cc3)C(=O)[C@@]12C	7.76
Cc1cc(C)c(OCC(=O)OCC(=O)N2CCc3ccccc3C2)c(C)c1	-19
COc1ccc(C(c2c(NC(C)=O)sc3c2CCCC3)N2CCN(CCO)CC2)cc1OC (stereo not drawn)	-7.6
Cc1ccc(C(=O)N2CCCN(c3nc4cc5c(cc4cc3C#N)OCO5)CC2)cc1	-0.619
CCN(C(=O)COc1cccnc1[N+](=O)[O-])C1CCS(=O)(=O)C1 (stereo not drawn)	-0.18
CCN(CC)C(=O)C1CCCN(c2ccc([N+](=O)[O-])cc2/C=N/NC(=O)c2cccc(Br)c2)C1 (stereo not drawn)	-0.713
CN(C(=O)C1CCCCC1)C1(C)CCS(=O)(=O)C1 (stereo not drawn)	-2.29
O=C1CN(C(=O)COC(=O)c2cnc(Cl)c(Cl)c2)c2ccccc2N1	-6.7
Oc1ccc(CNc2ccccc2F)c2cccnc12	14.5
COc1cccc(CC(=O)OCC(=O)NC2(C#N)CCCC2)c1	-1.39
COc1nc(C)ccc1-c1noc(-c2cccnc2)n1	10.1
COC(=O)C1=C(CSCc2ccccc2)NC(=O)NC1c1cc(C)ccc1C (stereo not drawn)	-1.35
Cn1c(=O)cc(SCC(=O)N2CCN(C3CCCCC3)CC2)c2ccccc21	-29.4
Cc1cccc(N=C2N=C(N)c3ccccc32)c1	-33.1
COC(=O)C1C(=O)C=C(Nc2ccc(F)cc2)CC1c1ccc(OC)cc1 (stereo not drawn)	11
COc1ccc(NS(=O)(=O)c2cccc(C(=O)N(C)CC(=O)Nc3ccc(C)cc3)c2)cc1	-32.6
Cc1cc(C)cc(NC(=O)NCC2CCN(Cc3cc(C)ccc3C)CC2)c1	-51
Cc1c(Cl)cccc1N1CC(C(=O)Nc2nccs2)CC1=O (stereo not drawn)	9.38

SMILES	hERG current change (%, negative = inhibition) at 10uM [%]
O=C(COC(=O)CNC(=O)c1ccc(Cl)cc1Cl)NCc1ccco1	-9.61
COc1cc2ccccc2cc1C(=O)OCC(=O)NC1CCS(=O)(=O)C1 (stereo not drawn)	-1.85
NS(=O)(=O)c1ccc(N/N=C/c2cn(-c3ccccc3)nc2-c2ccccc2)c([N+](=O)[O-])c1	3.79
O=C(CN1CCCCCC1)Nc1cccc([N+](=O)[O-])c1	-15.6
O=C(NCCCN1CCOCC1)C(=O)N/N=C/c1c2ccccc2cc2ccccc12	-3.6
Fc1ccccc1-c1[nH]ncc1-c1nnnn1-c1ccccc1	5.39
CCCNC(=S)Nc1ccc(Br)cc1	11.8
CS(=O)(=O)N(CC(=O)N1CCN(Cc2ccccc2)CC1)c1ccc2c(c1)OCCO2	-5.94
Cc1cccc(-n2nc3c(c2NC(=O)c2cc4ccccc4o2)CS(=O)(=O)C3)c1	-17.4
COc1ccc(OC)c(/C=N\NC(=O)c2ccc(=O)n(C)c2)c1	-0.982
Cc1cccc(-c2c3c(nc4c2c(=O)n(C)c(=O)n4C)-c2ccccc2C3O)c1 (stereo not drawn)	8.35
Cc1cccc(NC(=S)N2CCN(c3ccccn3)CC2)c1	4.09
CCN(CC)S(=O)(=O)c1cccc(-c2nnc(SCC(=O)c3ccc(Cl)s3)n2C)c1	-52.7
Cc1ccc(C(C)NC(=O)c2cc3cc(Br)ccc3oc2=N)cc1 (stereo not drawn)	-3.66
O=C(c1ccccn1)N1CCN(S(=O)(=O)c2ccccc2)CC1	12.7
Cc1nc2sccn2c(=O)c1S(=O)(=O)NCCc1ccc(Cl)cc1	16.6
CCn1cc(Cl)c(C(=O)Nc2cccc(CN3CCOCC3)c2)n1	14.7
CCCC(O)(CCC)C(=O)NN(C(=O)CCl)c1ccccc1	15.5
COc1ccccc1C(=O)NC(=O)CSc1nc(C)cs1	12
CCc1c(C(=O)NC2CCCC2)csc1C	-7.66
CC(C)Nc1nc(Oc2cccc(Cl)c2Cl)cc(C(F)(F)F)n1	14
O=C(NCc1ccco1)C1CC(c2cccc([N+](=O)[O-])c2)=NO1 (stereo not drawn)	-16.2

SMILES	hERG current change (%, negative = inhibition) at 10uM [%]
CCC(C)[C@H](NC(=O)NCc1cccs1)C(=O)OC (stereo partly drawn)	6.41
COc1ccc(C)cc1NC(=O)C1CC1c1ccccc1 (stereo not drawn)	-7.31
Cc1cc(-c2ccccc2)nc2cc(C(=O)OC(C)C)nn12	-11.6
O=C(CCSc1nc(-c2ccco2)cc(C(F)(F)F)n1)N1CCCc2ccccc21	-9.74
O=C(O)C(=O)O.c1cc2nc(C34CC5CC(CC(C5)C3)C4)[nH]c2cn1	-4.47
CS(=O)(=O)Nc1ccc(C(=O)NCc2ccco2)cc1	0.221
C/C(=N/NC(=O)CN1CCN(S(=O)(=O)c2ccc(Br)cc2)CC1)c1ccco1	-68.9
COc1ccc(N(C(=O)c2ccncc2)S(=O)(=O)c2ccc(F)cc2)cc1	16
N#Cc1c(-c2ccccc2)cc(-c2cccs2)nc1SCC(=O)O	5.56
CC(=O)Nc1cc2nc(C)n(Cc3ccccc3)c2nc1C	6.5
CCC(c1ccccc1)c1nc(-c2ccccn2)no1 (stereo not drawn)	-6.93
CN(CC(=O)Nc1ccc(F)cc1)C(=O)Cn1nnc(-c2ccccc2)n1	-0.128
Cc1ccc(F)cc1N=Cc1c(O)c2ccccc2oc1=O	16.3
CCOC(=O)NC(=O)CSc1ccc2ccccc2n1	14
Cc1ccc(NC(=S)C2=C(O)c3ccccc3N(C)S2(=O)=O)cc1	14.5
CCCC1=NN(c2ccc([N+](=O)[O-])cc2)C(=O)/C1=C\N(C)C	-7.95
O=C(Cn1c(=O)n(Cc2ccco2)c(=O)c2c3c(sc21)CCCCC3)Nc1ccccc1	6.54
CC(C)(C)c1ccc(C(=O)NC(=S)N2CCCCCC2)cc1	2.36
S=c1[nH]nc(-c2cc(-c3ccccc3)n[nH]2)n1/N=C/c1cccc(Cl)c1	29.2
Cc1ccc2c(c1)N(Cc1cccc(C#N)c1)C=NS2(=O)=O	9.38
O=C(Cc1cccs1)Nc1cccc(C(=O)Nc2ccco2)c1	-37.9
